Results on 172 sequences are retold here after paper PMC10668032.

The list shows a part of the results. At the low end of the ranking the order means little.

This assay concerns the target SIX1 homeodomain (reference allele) (UniProt Q15475). Kind of assay: universal protein binding microarray. As to conditions: Universal all-10-mer PBM (8x60K, AMADID 030236), 300 nM GST-tagged protein, Alexa Fluor 488 anti-GST; buffer, salt, pH and temperature not stated; high values mean tight binding; most listed sequences are background and not binding sites; double strand, one strand shown.
For CGAGCCTA, the binding signal is -0.104 E-score.
The figure for CCAAACAC is -0.095 E-score; for AAGGGCCG it is -0.141 E-score; for AGGAGGGC it is -0.0504 E-score.
The figure for AACGGGTG is 0.115 E-score; for GGGACATA it is 0.0355 E-score; for AATCGTCT it is 0.0676 E-score.
The figure for ACCGCCAC is -0.0523 E-score; for GCTACACA it is -0.159 E-score.
Regarding CCGGAACC, the binding signal amounted to 0.0328 E-score.
The figure for GCTAGAGC is -0.226 E-score; for CAAACGCG it is -0.204 E-score.
The figure for CTATTCAA is -0.0673 E-score; for CATGTAGG it is 0.05 E-score; for CGATGACA it is 0.18 E-score.
With GGCGGAAA the figure was -0.0892 E-score; with AAGTGGAC, -0.0997 E-score; with AAACATCA, -0.145 E-score.
ACATGCAG: the binding signal was found to be 0.0415 E-score.
The figure for GATTTATA is 0.0474 E-score; for CGACGGAG it is -0.0295 E-score.
The figure for AAAGTCTT is -0.333 E-score; for CTTATAGC it is -0.165 E-score; for CAGTGCCG it is 0.0261 E-score.
AGTGTTAA: the binding signal amounted to 0.0234 E-score.
The figure for CAGTAAAA is -0.0573 E-score; for GCAAACGC it is -0.121 E-score.
With AAGACTTA the figure was -0.183 E-score; with ATGAATTA, 0.0532 E-score; with ACCCCCTA, 0.258 E-score.
With AGAACGCA the figure was -0.0979 E-score; with ATCCTGCC, 0.175 E-score.
For ACCAACTC, the binding signal was -0.148 E-score.
With AGTTTCGC the figure was -0.178 E-score; with CACATGTG, -0.243 E-score; with TGTATGAA, 0.149 E-score.
The figure for CCGCCTCA is 0.0502 E-score.
With CCCGATAC the figure was 0.438 E-score; with AGGCGAGC, -0.0907 E-score; with TAGGTCGA, 0.0126 E-score.
Take GAACGCGC: the binding signal is -0.108 E-score.
The figure for CTCTATCC is 0.216 E-score; for ATAGGGAA it is -0.028 E-score; for CGCACCGA it is -0.0964 E-score.
As to TAGGAATA, the binding signal came out at 0.131 E-score.
The figure for CGCATGCA is 0.0791 E-score; for ATGACCTC it is -0.0438 E-score.
With GCCTGGGA the figure was 0.0422 E-score; with ACTGCGTC, -0.188 E-score; with ACAGAAAG, -0.159 E-score.
Consider CGTCTCTA, for which the binding signal is -0.0472 E-score.
The figure for AACGAATT is -0.0853 E-score; for TAAGGAAA it is -0.332 E-score.
For the sequence GTATGGAC, the binding signal worked out at 0.116 E-score.
With GCGGTCAC the figure was -0.169 E-score; with ACAACAGT, -0.141 E-score; with ACTATGAT, 0.119 E-score.
For CCGTTTTA, the binding signal worked out at 0.0369 E-score.
The figure for AGTTCAAT is -0.0637 E-score; for ACGGGAGT it is 0.231 E-score.
With ATTGACTG the figure was -0.0721 E-score; with ACAGCGAT, 0.0697 E-score; with TATATGCA, 0.0994 E-score.
With CACAATTC the figure was 0.102 E-score; with GCAAAACC, -0.145 E-score.
For ACACCTAG, the binding signal amounted to 0.231 E-score.
The figure for ACTTAATG is -0.00827 E-score; for CGGCTGAA it is -0.182 E-score.
The figure for CAAACCTG is -0.0736 E-score.
With ATGTGGTA the figure was 0.151 E-score; with AAGTTATC, 0.131 E-score.
In the case of ACTACAAC, the binding signal is -0.0671 E-score.
Consider CAAACGAA, for which the binding signal is -0.126 E-score.
The figure for CACTGGTA is 0.269 E-score.
With CCACACCC the figure was 0.131 E-score.
The figure for GACCTGGC is -0.00536 E-score; for ATCTGTTA it is -0.00763 E-score.
With AACTGAAA, the binding signal was -0.185 E-score.
The figure for CGTGCGGC is -0.163 E-score.
As to CGCATGAA, the binding signal was -0.0595 E-score.
With GATGACGC, the binding signal came to 0.0462 E-score.
With CGCGTTGC the figure was -0.0952 E-score; with CAGGTCCA, -0.142 E-score.
AAGAGTTG: the binding signal was -0.11 E-score.
The figure for AATTTGCG is -0.128 E-score.
As to GCTGTGCA, the binding signal was -0.229 E-score.
The figure for ACAGGCAT is -0.0511 E-score; for AATCCCCA it is 0.212 E-score; for CCCTACGG it is 0.0883 E-score.
With ACCACGAG the figure was -0.118 E-score.
For AATAATTC, the binding signal is -0.209 E-score.
For the sequence CATTCAAC, the binding signal was -0.103 E-score.
With ACAATCTG the figure was 0.0229 E-score; with ATACAGCG, 0.167 E-score.
With ATCAATCG, the binding signal was determined as 0.266 E-score.
With CTCGCCTA the figure was -0.15 E-score; with CACCCTGC, 0.207 E-score.
The figure for CGAGCTAC is -0.0148 E-score; for TATACGCA it is 0.304 E-score.
The figure for GAGGTTAA is -0.188 E-score; for ACGTACAG it is -0.0276 E-score; for GGCCCGCC it is -0.198 E-score.
ACGGAGGG: the binding signal was 0.115 E-score.
The figure for CGAACGCA is -0.0719 E-score; for GGTTCCGA it is -0.189 E-score; for CGGAATGA it is 0.121 E-score.
The figure for TCCGCACA is 0.0488 E-score.
With GCACTTTA, the binding signal was -0.179 E-score.
With AAACTAGC the figure was -0.17 E-score; with GAACTCCC, -0.0241 E-score; with CGTCCTAC, 0.0505 E-score.
CCGCGTAA: the binding signal was -0.00478 E-score.
In the case of GCCAATAC, the binding signal was 0.16 E-score.
The figure for AGTGAGAG is -0.00284 E-score.
The figure for CGTGGTTC is -0.168 E-score.
For the sequence ACAGCGAG, the binding signal amounted to 0.0875 E-score.
With GGTATCGA the figure was 0.463 E-score; with ATCAAGGG, 0.258 E-score; with CAGGCCTG, -0.219 E-score.
The figure for GCCCCCTA is -0.0893 E-score; for CCTTCGCA it is -0.129 E-score; for GGTCGAGA it is -0.072 E-score.
As to CGTGTTGA, the binding signal came to 0.176 E-score.
In the case of CGATGCGC, the binding signal was -0.0157 E-score.
For ATGTGGTG, the binding signal was 0.0886 E-score.
With ATAAAGGG the figure was -0.139 E-score; with CTGTGATC, 0.328 E-score; with ATTCCCTG, -0.0532 E-score.
Turning to CATCGCCA, the binding signal is -0.0374 E-score.
With CATGGTAC the figure was 0.0444 E-score; with CAGATGGC, 0.129 E-score.
With GCTCACGA the figure was -0.143 E-score; with GCTTGAGA, 0.0238 E-score.
With CTCACGAG the figure was -0.106 E-score.
For ATCAAAAA, the binding signal was found to be 0.153 E-score.
With CCAGCATA the figure was 0.0946 E-score; with AAGACGTC, -0.026 E-score.
Take CCTGCTAC: the binding signal came out at 0.0839 E-score.
The figure for AAACATTC is -0.159 E-score.
With ATCGTAGA the figure was 0.193 E-score.
GACTAAAC: the binding signal is -0.111 E-score.
With ACGGTAAT the figure was 0.0335 E-score.
The figure for TGGGGAAA is 0.00963 E-score.
With CTACTTGC the figure was -0.0157 E-score.
Consider CAATATAA, for which the binding signal turned out to be 0.109 E-score.
The figure for GCAGTGGC is -0.218 E-score.
The figure for CCTCACGC is -0.179 E-score.
The figure for ATTCTTGG is -0.0567 E-score; for CCCACCAA it is -0.0249 E-score; for AGTGGGCC it is -0.334 E-score.
On to CTCACTCC, for which the binding signal was -0.107 E-score.
The figure for CAATGATC is 0.31 E-score; for AAAATTTG it is -0.116 E-score; for CCAGACCC it is 0.075 E-score.
With CGACCGCC the figure was -0.215 E-score; with CAACATAC, 0.0508 E-score.
The figure for AATTAATG is -0.00941 E-score; for TATTGTCA it is 0.105 E-score; for TAGCCCGA it is -0.0898 E-score.
Consider GATCCTCA, for which the binding signal is 0.295 E-score.
The figure for TTAATAAA is -0.127 E-score.
ACCGTGGG: the binding signal was -0.00766 E-score.
The figure for AACCTGCT is 0.0479 E-score; for AGTGCAAA it is -0.143 E-score.
Regarding ACTTTCAT, the binding signal was -0.162 E-score.
Consider AATCAAAG, for which the binding signal is -0.211 E-score.
The figure for CTCAGGTA is 0.16 E-score.
With GCGCAGTA the figure was -0.0705 E-score.
With CAGATTTC the figure was -0.126 E-score.
For the sequence ATCACCGC, the binding signal was 0.191 E-score.
Regarding ACTTAGCG, the binding signal amounted to 0.0127 E-score.
The figure for AATAGACA is 0.0469 E-score.
